Measurements published in PubChem BioAssay AID686979 (National Center for Advancing Translational Sciences (NCATS), 2013).
The whole screen tested about 420,000 compounds, of which about 50,000 (12%) were called active. Inconclusive results, whose numbers are uncertain, are shown with a selection of clear calls. The call rests on the fitted dose curve; in most records, active means well fitted inhibition curve with a large enough effect; inconclusive means small, poorly fitted or top-dose-only effect; inactive means flat fitted curve, though single readings scatter. No potency is given beside an inconclusive call; the fits are too rough.

Experiment: qHTS for Inhibitors of human tyrosyl-DNA phosphodiesterase 1 (TDP1): qHTS in cells in presence of CPT; further: nearly all actives have a fitted effect of over 55% in size
Details: chicken DT40 Tdp1-/-;hTDP1 cells + 20 nM CPT, ATP luminescence, 48 h; activity change, negative = growth inhibition: at 46.2 µM (top of the series) unless noted
Summary of the method: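 Chicken DT40 Tdp1-/- cells stably complemented with human TDP1 were seeded at 400 cells/well in medium containing 20 nM camptothecin, exposed to pin-transferred compounds, and grown at 37 °C for at least 48 hr. Viability was read as ATP luminescence.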
On the % scale 0 is the no-effect control and ±100 the full control effect; potency means the concentration at half of the fitted maximal effect; tags describe the fitted curve by direction and shape.

SMILES	Potency	activity change, negative = growth inhibition
CC(C)(C)NC(=O)[C@]1(C)CCC[C@@]2(C)C3CC[C@@]4(C)C[C@]3(CCC21)CC4=O (stereo not given in full)	inconclusive [inhibitor, single point]	–
Cc1ccc(CN2CCNC(=O)C2CC(=O)NCCCn2cccn2)o1 (stereo not given)	–	inactive: 11.4%
Cc1ccc(/C=C/c2onc(C)c2S(=O)(=O)N2CCC(C(=O)Nc3cc(F)ccc3F)CC2)cc1	inconclusive [inhibitor, partial curve]	–
Cc1ccccc1C(=O)N/N=C1\SCC(=O)N1Cc1ccco1	–	inactive: 5.64%
COc1ccc(-c2cn[nH]c2-c2ccc(OC)cc2O)cc1	inconclusive [inhibitor, partial curve, poor fit]	–
CCCCNC(=O)C1c2ccccc2OCC(=O)N1Cc1ccc2c(c1)OCO2 (stereo not given)	–	inconclusive: -31.4% [inhibitor]
O=C(NCc1cc(C(F)(F)F)cc(C(F)(F)F)c1)C12CN(Cc3ccccc3)CC1C(c1cccc([N+](=O)[O-])c1)=NO2 (stereo not given)	–	inactive: -15.5%
CCOc1ccc(NC(=O)CN(C)C(=O)c2n[nH]c(=O)c3ccccc23)cc1OCC	–	inactive: -13%
COCCN(C(=O)CCc1nnc(Cc2c[nH]c3ccccc23)o1)C(C)C	–	inactive: -0.445%
CCOc1ccc(S(=O)(=O)Nc2cc(Cl)ccc2OC)c2cccnc12	active: 14.6 µM	–
Cc1cc(C)n(Cc2ccc(C(=O)N/N=C/c3ccc(-c4ccc([N+](=O)[O-])cc4)o3)o2)n1	inconclusive [inhibitor, single point]	–
CCCc1nc(SCC(=O)Nc2nc3c(s2)CCCC3)c2ccccc2n1	–	inconclusive: -37% [inhibitor]
COc1ccc(Cc2c(C(C)(C)C)nc3ccc(C)cn23)c(C)c1	active: 14.6 µM	–
COc1cccc(-c2cc(C(=O)N3CCN(Cc4ccccc4)CC3)no2)c1	–	inactive: -21.2%
CCC/C(=C1/c2ccccc2C(=O)N1c1ccccc1)c1ccc(O[C@@H]2CCCCO2)cc1	inconclusive [inhibitor, single point]	–
COc1ccccc1-c1cc(C(=O)NC(C)c2ccccc2)no1 (stereo not given)	inconclusive [inhibitor, single point]	–
O=C(Nc1nc2ccccc2s1)c1ccc([N+](=O)[O-])o1	active: 14.6 µM	–
CCC1CN(C(=O)N2CCC(C(=O)NCCc3ccccc3)CC2)c2ccccc2O1 (stereo not given)	inconclusive [inhibitor, single point]	–
Cc1cc(C)c2oc(C(=O)Nc3ccc(S(=O)(=O)Nc4nccc(C)n4)cc3)cc(=O)c2c1	inactive	–
Cc1ccc(C)c2[nH]c(=O)c(C(c3nnnn3Cc3ccccc3)N3CCc4ccccc4C3)cc12 (stereo not given)	active: 20.6 µM	–
COc1ccc(-c2oc3cccnc3c2C#CCO)cc1	inconclusive [inhibitor, single point]	–
CC(C)NC(=O)c1cc(C2CCCCN2S(=O)(=O)c2ccc(F)cc2F)on1 (stereo not given)	–	inactive: -10.4%
Cc1ccc(CN2CCCn3nc(C(=O)NCC(C)c4ccccc4)cc3C2=O)cc1 (stereo not given)	inconclusive [inhibitor, single point]	–

SMILES	Potency	activity change, negative = growth inhibition
N#Cc1ccc(OCC(O)CN2CCN(c3ncc(C(F)(F)F)cc3Cl)CC2)cc1 (stereo not given)	inconclusive [inhibitor, single point]	–
Cc1sc2c(c1C)c(=O)n(-c1ccccc1)c(=O)n2CC(=O)NCC1CCCO1 (stereo not given)	–	inactive: -3.05%
COc1ccc2[nH]c(=O)c(CN(C(=O)COc3ccccc3)C(C)C)cc2c1	inconclusive [inhibitor, single point]	–
Nc1nnnn1-c1cccc([N+](=O)[O-])c1	–	inactive: -2.48%
Cc1ccc(-n2c(P(C)(=O)O)nc3ccccc32)cc1	–	inactive: 0.85%
CC(=O)N/C(=C\c1ccccc1)C(=O)OCc1cc(C)ccc1C	–	inactive: 9.49%
O=c1c(-c2ccco2)[n+]([O-])c2ccccc2n1OCc1ccccc1[N+](=O)[O-]	inconclusive [inhibitor, single point]	–
Nc1nc(Nc2ccccc2)nc(N2CCOCC2)c1[N+](=O)[O-]	–	inactive: -25.6%
CC(=O)Nc1ccn(C2COC(COC(=O)c3ccccc3)O2)c(=O)n1 (stereo not given)	active: 0.841 µM	–
CCOC(=O)CC1CCCCN1C(=O)CCCn1nnnc1CN1CCC(C)CC1 (stereo not given)	–	inconclusive: -30.8% [inhibitor]
CC1CCN(CCCNC(=O)CCc2nnc3n(CCc4ccccc4)c(=O)c4ccccc4n23)CC1	inconclusive [inhibitor, single point]	–
O=C(NCCCN1CCCC1=O)c1nnc(Cc2c(F)cccc2Cl)o1	inconclusive [inhibitor, single point]	–
C=CCOC(=O)C1=C[C@@H](C2CCCCC2)C[C@@H](OCc2ccc(CO)cc2)O1	inconclusive [inhibitor, single point]	–
COc1cccc(/C=N/NC(=O)C(=O)NCc2cccnc2)c1O	inconclusive [inhibitor, single point]	–
CC(C)C(C(=O)O)N1C(=O)/C(=C/C=C/c2ccco2)SC1=S (stereo not given)	–	inconclusive: -34.2% [inhibitor]
Cc1nc(-c2ccc(S(=O)(=O)Nc3ccc(Br)cc3Cl)s2)cs1	–	inactive: -4.41%
Cc1noc(C)c1S(=O)(=O)N1CCN(Cc2ccc3c(c2)OCO3)CC1	inconclusive [inhibitor, single point]	–
COC(=O)CCC(=O)OC1(C)C(=O)C=C2C=C(C3CC3)N(c3cccc(C#N)c3)C=C2C1=O (stereo not given)	inconclusive [inhibitor, single point]	–
O=c1c2sc3ccccc3c2n(Cc2cccc(C(F)(F)F)c2)c(=O)n1Cc1ccc(F)cc1	inconclusive [inhibitor, partial curve]	–
CCc1ccc(NC(=O)CCCn2nc(CC)n3c(cc4occc43)c2=O)cc1	inconclusive [inhibitor, single point]	–
COC(=O)c1ccc2[nH]c(CO)c(-c3ccccc3)c2c1	inconclusive [inhibitor, single point]	–
O=c1oc2ccccc2cc1-c1cn2cc(Cc3ccc(Br)cc3)sc2n1	active: 1.3 µM	–
